# Laboratory results as given in PubChem BioAssay AID651820 (National Center for Advancing Translational Sciences (NCATS), 2012).
# About 12,000 (3.5%) of roughly 340,000 compounds were called active. The shares of active, inactive and inconclusive entries below differ from those in the screen. Calls come from the whole dose curve; as a rule, active = well fitted inhibition curve with a large enough effect; inconclusive = small, poorly fitted or top-dose-only effect, or another doubt; inactive = no such curve, though single readings can be large or run the other way. Potencies of inconclusive entries are left out as doubtful fits.
# Experiment: qHTS Assay for Inhibitors of Hepatitis C Virus (HCV)
# Details: Huh7.5.1 HCVcc-Cre (HCVcc is cell-culture hepatitis C virus) infection, luciferase reporter, 44 h; activity change, negative = inhibition: at 41.8 µM (top of the series) unless noted
# Outline: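 Compounds are dispensed onto cells plated 4 h earlier at 1,000 per well, with HCVcc-Cre virus (about 0.5 moi) added next. Following 44 h of culture, luminescent signal is measured for 15 sec after 15 min with substrate at room temperature.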
# % is set by controls: 0 for no effect and ±100 for the full control effect; potency is the fitted concentration of half-maximal effect; tags give direction and shape of the fitted curve.
SMILES,Potency,"activity change, negative = inhibition"
CCC(CC)c1nnc(NC(=O)C2CC(=O)N(c3ccc4c(c3)OCCO4)C2)s1 (configuration not stated),"inconclusive [inhibitor, full curve]",–
COc1ccc(-c2sc(Nc3ccccc3)n[n+]2C)c(C)c1C,"inconclusive [inhibitor, single point]",–
CCN(CC(=O)NCc1ccc(Cl)cc1)C(=O)c1cc(S(=O)(=O)NCc2ccccc2)ccc1C,"inconclusive [inhibitor, partial curve]",–
CCCN(CCC)S(=O)(=O)c1ccc(C(=O)Nc2nnc(COC)o2)cc1,–,inactive: -2.84%
COC(=O)C(C)n1nnc2sc(-c3ccccc3)cc2c1=O (configuration not stated),–,inactive: 4.26%
CCN1CCN(C(C(=O)NC2CCCCC2)c2ccc(Cl)cc2)CC1 (configuration not stated),"inconclusive [inhibitor, single point]",–
COc1ccc(OC)c(NC(=O)CNC(=O)Cn2cnc3ccccc3c2=O)c1,"inconclusive [inhibitor, single point]",–
COc1ccc(-c2noc(CCC(=O)Nc3cc(Cl)c(OC)cc3OC)n2)cc1,active: 3.98 µM,–
C(#Cc1ccccc1)CN1CCCCC1,–,inactive: -1.55%
CCOc1ccc(Nc2nc3cc(S(=O)(=O)N(CC)CC)ccc3o2)cc1,active: 10 µM,–
COc1cccc(C2C3=C(N=C4SCC(=O)N42)c2ccccc2CC3)c1OC (configuration not stated),"inconclusive [inhibitor, partial curve]",–
CC(=O)NCCC(=O)N(Cc1ccccc1)c1nc2c(C)cccc2s1,–,inactive: -5.95%
CCO[C@H]1OC(C(=O)N2CCN(Cc3ccc4c(c3)OCO4)CC2)=C[C@@H](c2csc3ccccc23)[C@@H]1CCCO,"inconclusive [inhibitor, partial curve]",–
CCN(CC(=O)Nc1ccccc1OC)C(=O)c1cc(S(=O)(=O)N2CCCCCC2)ccc1OC,"inconclusive [inhibitor, single point]",–
CCCCN(C)CCNC(=S)Nc1ccc2nc(N3CCN(CC)CC3)cc(C)c2c1,"inconclusive [inhibitor, partial curve]",–
O=[N+]([O-])c1ccccc1S(=O)(=O)N1CCN(c2ccccn2)CC1,–,inactive: -6.29%
CSC1=C(C#N)C(c2ccc(C)s2)CC(=O)N1 (configuration not stated),–,inactive: -3.28%
CN(Cc1c(F)cccc1Cl)C(=O)c1cccc(S(=O)(=O)NCc2ccccc2)c1,"inconclusive [inhibitor, single point]",–
COc1cc(/C=C/C(C)=NNc2ccccc2)ccc1O,"inconclusive [inhibitor, partial curve]",–
C[C@H](CO)N1C[C@H](C)[C@@H](CN(C)CC2CC2)Oc2c(NS(=O)(=O)c3ccccc3)cccc2C1=O,–,inactive: 3.81%
O=C(c1ccc(F)cc1)N1CCN(c2ccc([N+](=O)[O-])cc2-n2cccc2)CC1,"inconclusive [inhibitor, single point]",–
CCOC(=O)c1c(SCCN2CCCCC2)n(-c2ccccc2)c(=S)n(-c2ccccc2)c1=O,"inconclusive [inhibitor, single point]",–
Cc1ccc(C(=O)c2cc([N+](=O)[O-])ccc2N2CCCCC2)cc1,–,inactive: -13.3%

SMILES,Potency,"activity change, negative = inhibition"
O=C(N/N=C/c1ccncc1)c1ccccc1,–,inactive: 3.15%
CC1CCCN(C(=O)CN2C(=O)NC(C)(c3ccc4ccccc4c3)C2=O)C1 (configuration not stated),–,inactive: -2.09%
N#Cc1ccc(C23CC4(C2)[C@H](CN(Cc2ccc(C(F)(F)F)cc2)[C@@H]4c2ccccc2)C3c2ccccc2)cc1 (some centres not stated),–,inactive: 1.62%
O=C1C2C3C=CC(C4CC34)C2C(=O)N1/N=C/c1ccc(-c2cccc([N+](=O)[O-])c2)o1 (configuration not stated),"inconclusive [inhibitor, partial curve]",–
COCCCNC(=O)CSc1nc2cc3c(cc2c(=O)n1CCCC(=O)NCc1ccc(OC)cc1)OCO3,"inconclusive [inhibitor, partial curve, poor fit]",–
O=C(CN1CCN(C(=O)c2ccco2)CC1)Nc1ccccc1-c1ccccc1,–,inactive: -16.7%
Cc1ccc2c(c1)c1c3n2CCN(C(=O)CCl)C3CCC1 (configuration not stated),active: 22.4 µM,–
Cc1cccc(NC(c2ccc(O)cc2)c2ccc3ccc(C)nc3c2O)n1 (configuration not stated),"inconclusive [inhibitor, single point]",–
Cc1ccc2cc(N)ccc2n1,–,inactive: 8.13%
CCCC(=O)Nc1ccccc1-c1nnn(CC(=O)Nc2ccc(OC)cc2)n1,"inconclusive [inhibitor, single point]",–
Cc1cc(C)cc(C(=O)NCC(=O)N2CCN(c3cccc(Cl)c3)CC2)c1,"inconclusive [inhibitor, partial curve]",–
CC(C)(C)OC(=O)NCCCCCc1cn([C@@H](CO)C(=O)NCCCCCCCCCCC(=O)N2CCN(C(=O)OC(C)(C)C)CC2)nn1,"inconclusive [inhibitor, partial curve]",–
CC(=O)Nc1ccc(NC(=O)COC(=O)c2c3c(nc4ccccc24)CCN(Cc2ccccc2)C3)cc1,active: 12.6 µM,–
O=C(C[n+]1ccc2ccccc2c1)c1cccc2ccccc12,"inconclusive [inhibitor, single point]",–
COc1ccc(/C=C(/NC(=O)c2ccccc2)C(=O)NCCN2CCOCC2)cc1OC,–,inactive: 31.6%
CCOc1ccc(Oc2ccc(NC(=O)CSc3nncn3C)cc2)cc1,"inconclusive [inhibitor, single point]",–
COc1ccc(-c2cc(C(F)F)n3ncc(C(=O)N4CCSCC4)c3n2)cc1,"inconclusive [inhibitor, single point]",–
O=[N+]([O-])c1ccc(-c2ccc(S(=O)(=O)N3CCOCC3)cc2)cc1,–,inactive: 8.4%
O=C(COC(=O)c1c2ccccc2cc2ccccc12)NCC(F)(F)F,active: 11.2 µM,–
COc1cccc(CNS(=O)(=O)c2ccc3c(c2)CCN3C(=O)C2CC2)c1,"inconclusive [inhibitor, single point]",–
CCN(c1ccccc1)S(=O)(=O)c1ccc(C(=O)N(CCCN(C)C)c2nc3cc4c(cc3s2)OCO4)cc1,"inconclusive [inhibitor, single point]",–
Cc1cnc(C(=O)OCC(=O)N2CCN(C(=O)c3ccco3)CC2)cn1,–,inactive: 32.1%
O=C(CN1C(=O)NC2(CCc3ccccc32)C1=O)Nc1ccc(Br)cc1F (configuration not stated),"inconclusive [inhibitor, single point]",–

SMILES,Potency,"activity change, negative = inhibition"
CCOc1ccc2nc(N3CCCC(C(=O)NC4CCCC4)C3)sc2c1 (configuration not stated),"inconclusive [inhibitor, single point]",–
Oc1ccc(Br)cc1-c1cc(-c2ccco2)[nH]n1,"inconclusive [inhibitor, single point]",–
COc1cccc(/C(C)=N/N=C(\C)c2cccc(OC)c2)c1,"inconclusive [inhibitor, single point]",–
COc1ccc(N2CCN(C(=O)C3CCN(C(=O)c4cccc(Cl)c4)CC3)CC2)cc1,"inconclusive [inhibitor, single point]",–
O=C(Nc1nc(-c2cccnc2)cs1)c1ccccc1[N+](=O)[O-],"inconclusive [inhibitor, full curve, poor fit]",–
COc1cc(OC)c2c(O)c3c(c(-c4c5c(c(O)c6c(OC)cc(OC)cc46)CO[C@@H](C)[C@H]5O)c2c1)[C@H](O)[C@H](C)OC3,"inconclusive [inhibitor, single point]",–
O=C(Nc1ccc(Cl)c(Cl)c1)c1ccncc1,–,inactive: -26.1%
CC(C)Oc1ccc(S(=O)(=O)N2CCOCC2)cc1NC(=O)c1cc([N+](=O)[O-])ccc1N1CCOCC1,"inconclusive [inhibitor, partial curve]",–
O=C(NC1CCN(Cc2ccccc2)CC1)c1ccc(Cn2c(=S)[nH]c3ccc(N4CCOCC4)cc3c2=O)cc1,"inconclusive [inhibitor, full curve, poor fit]",–
CC(O)C(NS(=O)(=O)c1ccc(Cl)cc1)C(=O)OCC(=O)c1c[nH]c2ccccc12 (configuration not stated),"inconclusive [inhibitor, partial curve, poor fit]",–
COc1cc(OC)c(C(=O)OC(C)C(=O)Nc2cccc(C(F)(F)F)c2)cc1OC (configuration not stated),"inconclusive [inhibitor, single point]",–
CCCOc1ccc(NC(=O)CC2C(=O)N(C)C(=S)N2Cc2ccc3c(c2)OCO3)cc1 (configuration not stated),"inconclusive [inhibitor, single point]",–
Cc1cccc(NC(=O)c2ccc(S(=O)(=O)NCc3cccnc3)cc2)c1,"inconclusive [inhibitor, single point]",–
CCOC(=O)c1cc(-c2ccccc2)n(CC(=O)Nc2cc(OC)cc(OC)c2)c1C,"inconclusive [inhibitor, partial curve]",–
CNc1ccc(Br)cc(C(=O)/C=C/c2ccc(Cl)cc2Cl)c1=O,"inconclusive [inhibitor, partial curve]",–
O=C(CC1COc2ccccc2O1)NCc1ccccc1 (configuration not stated),–,inactive: 14.3%
O=C(CN1CCN(C(c2ccccc2)c2ccccc2)CC1)N1CCN(c2ccccc2)CC1,"inconclusive [inhibitor, partial curve]",–
CCCC(=O)Nc1ccc(-c2nc3cc(C)ccc3o2)cc1,active: 11.2 µM,–
COc1ccc(OC)c(C(=O)c2coc3ccc(O)c(CN(C)C)c23)c1,–,inactive: 4.77%
Cc1cc(=O)oc2cc(NC(=O)C(C)Oc3ccc(F)cc3)ccc12 (configuration not stated),"inconclusive [inhibitor, single point]",–
CCOC(=O)N/N=C/c1cn(Cc2ccccc2Cl)c2ccccc12,"inconclusive [inhibitor, single point]",–
